Data: PubChem BioAssay AID624417 (National Center for Advancing Translational Sciences (NCATS), 2012)
The campaign covered roughly 410,000 compounds. About 6,400 (1.6%) were called active. Inconclusive means that the source gave no clear call. Such entries were picked first, then a sample of the others. The call rests on the fitted dose curve; in most records, active means well fitted inhibition curve with a large enough effect; inconclusive means small, poorly fitted or top-dose-only effect; inactive means no such curve, though single readings can be large or run the other way. Potencies beside an inconclusive call are fits to weak or partial responses and may not hold up.

Each molecule was assayed against Glucagon-like peptide 1 receptor (Homo sapiens) (UniProt P43220) (assay: qHTS of GLP-1 Receptor Inverse Agonists (Inhibition Mode)). Conditions: HEK293 GLP-1R CRE-luciferase, luminescence, 24 h, GLP-1R form is constitutively active; series mostly up to 38.3 µM.
Chain of UniProt P43220 (P43220 whole entry, looked up): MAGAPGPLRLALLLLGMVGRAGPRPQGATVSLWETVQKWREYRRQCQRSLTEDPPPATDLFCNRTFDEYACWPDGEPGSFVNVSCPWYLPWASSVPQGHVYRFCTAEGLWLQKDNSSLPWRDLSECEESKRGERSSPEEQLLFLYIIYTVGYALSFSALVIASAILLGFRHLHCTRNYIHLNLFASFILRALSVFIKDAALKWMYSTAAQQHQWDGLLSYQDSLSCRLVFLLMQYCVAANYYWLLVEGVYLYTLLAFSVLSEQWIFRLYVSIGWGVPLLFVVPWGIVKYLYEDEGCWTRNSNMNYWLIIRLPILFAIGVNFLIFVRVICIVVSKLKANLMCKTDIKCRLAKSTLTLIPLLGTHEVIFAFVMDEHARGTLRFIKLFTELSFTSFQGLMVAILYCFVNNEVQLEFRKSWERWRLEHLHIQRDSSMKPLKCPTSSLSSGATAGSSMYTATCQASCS
Method in brief: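 Using stably transfected HEK293 (constitutively active GLP-1R, cAMP-luciferase reporter), compounds were incubated 24 hr and luciferase measured by luminescence.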
Further: nearly all actives have a fitted effect of over 55% in size.
Potency means the concentration at half of the fitted maximal effect; tags describe the fitted curve by direction and shape.

Potency, active:
Cc1ccc(S(=O)(=O)N2CCC(=O)N(C(COCc3ccc(Cl)cc3)Cc3ccccc3)CC2)cc1 (centres undefined) 11.2 µM
CCn1c2ccccc2c2cc(NC(=O)N3CCCCC3)ccc21 10 µM

Potency, inconclusive:
COc1ccc(Cl)cc1C1=CC(=O)C[C@H](c2ccc(F)cc2)C1 10 µM [inhibitor, partial curve, poor fit]
Cc1ccc(C)c(Cn2nnc3c(=O)[nH]c(C4CCN(S(=O)(=O)c5ccc(S(=O)(=O)N(C)C)cc5)CC4)nc32)c1 31.6 µM [inhibitor, partial curve, poor fit]
OC(CN1C2=NCCCN2c2ccccc21)c1ccc(Cl)cc1 (centres undefined) 31.6 µM [inhibitor, single point]
NC(CCc1ccccc1)c1csc(Nc2ccccn2)n1 (centres undefined) 12.6 µM [inhibitor, single point]
Cc1cccc(N2CCN(C(=O)COc3ccc4c(C)cc(=O)oc4c3C)CC2)c1C 11.2 µM [inhibitor, partial curve, poor fit]
Brc1ccc2c(c1)OCCOCCOCCOCCOCCOCCO2 12.6 µM [inhibitor, partial curve, poor fit]
CC(C)C(=O)c1cn(CC(=O)NCc2ccc3c(c2)OCO3)c2ccccc12 11.2 µM [inhibitor, partial curve, poor fit]
CCN(C(=O)Cn1c(=O)oc2ccccc21)c1ccc(C)c(C)c1 31.6 µM [inhibitor, single point]
CN(C)C(CNC(=O)c1ccc(C2SCCS2)cc1)c1ccccc1 (centres undefined) 5.01 µM [inhibitor, partial curve]
Cc1cccc(N2CCN(C(=O)c3ccccc3SCC(=O)N3CCCC3)CC2)c1C 3.98 µM [inhibitor, partial curve, poor fit]
Cn1c(Cl)c(/C=N/OC(=O)c2ccccc2Cl)c2ccccc21 28.2 µM [inhibitor, single point]
Cc1c(C)n(C)c2ccc(C(=O)NCCCN3CCCCC3C)cc12 (centres undefined) 14.1 µM [inhibitor, single point]
CNC(=O)c1sccc1SCc1c(Cl)cccc1Cl 15.8 µM [inhibitor, partial curve, poor fit]
CCCCn1nnnc1C(c1ccccc1)N1CCN(c2cc(C)ccc2C)CC1 (centres undefined) 14.1 µM [inhibitor, partial curve, poor fit]
O=C(Nc1nc2ccccc2s1)c1ccc(F)cc1 10 µM [inhibitor, partial curve]
CCOC(=O)c1ccc(NC(=O)CN2CCN(Cc3ccccc3)CC2)cc1 12.6 µM [inhibitor, partial curve, poor fit]
CCC/C=N/Nc1nnc(Cc2ccccc2)c(=O)[nH]1 28.2 µM [inhibitor, single point]
N=c1c2c(-c3ccccc3)c(-c3ccccc3)n(Cc3ccco3)c2ncn1CCCn1ccnc1 7.08 µM [inhibitor, partial curve, poor fit]
Cc1cccnc1C(NC(=O)C1CCN(CCCc2ccccc2)CC1)c1ccc(Cl)cc1 (centres undefined) 10 µM [inhibitor, partial curve, poor fit]
COc1ccc(-c2cc(-c3nnc(COC(=O)C4CC4C)o3)c3ccccc3n2)cc1OC (centres undefined) 28.2 µM [inhibitor, single point]
O=C(Cc1ccccc1)Nc1ccc(SC(F)F)cc1 28.2 µM [inhibitor, single point]
CCNC(C(=O)c1c[nH]c2c(CC)cccc12)c1ccccc1 (centres undefined) 10 µM [inhibitor, partial curve, poor fit]
Oc1ccc(/C=N/Nc2ccc(C(F)(F)F)cn2)cc1 28.2 µM [inhibitor, single point]
Oc1ccc(Cl)cc1C1=NNC(c2ccc(Cl)cc2)C1 (centres undefined) 28.2 µM [inhibitor, single point]
c1ccc(CNc2nc(NCc3cccs3)nc3ccsc23)cc1 28.2 µM [inhibitor, single point]
COc1cccc(-c2nc(SCC(=O)Nc3ccc4c(c3)OCCO4)c(-c3ccccc3)[nH]2)c1 25.1 µM [inhibitor, single point]
O=C(NCCn1cc(SCc2ccc(Cl)cc2)c2ccccc21)c1cccs1 11.2 µM [inhibitor, partial curve, poor fit]
CCOc1ccc2c(c1)OC(c1ccc(OC)cc1)(C(F)(F)F)NC2=O (centres undefined) 3.98 µM [inhibitor, full curve, poor fit]
Clc1cccc(Cc2c(-c3cccc(Br)c3)nc3ccc(Br)cn23)c1 10 µM [inhibitor, partial curve]
Cc1occc1-c1nnc(SCC(=O)N2CCCc3ccccc32)n1Cc1ccco1 28.2 µM [inhibitor, single point]
O=C(N1CCCCCC1)n1c(Cc2ccccc2)nc2ccccc21 22.4 µM [inhibitor, partial curve, poor fit]
CC(NC(=S)Nc1ccc(OC(F)F)cc1)c1ccc(F)cc1 (centres undefined) 14.1 µM [inhibitor, single point]
CC1(C)CC2CC(C)(CN2C(=O)COc2cccc3ccccc23)C1 (centres undefined) 5.62 µM [inhibitor, partial curve, poor fit]
Oc1ccccc1C1=Nc2nc3ccccc3n2C(c2ccccc2)C1 (centres undefined) 10 µM [inhibitor, partial curve, poor fit]
COc1ccccc1CNc1nc(NCC2CC2)nc2ccsc12 15.8 µM [inhibitor, single point]
O=C(NC(NC(=S)Nc1c(Cl)cc(Cl)cc1Cl)C(Cl)(Cl)Cl)OCc1ccccc1 (centres undefined) 2.24 µM [inhibitor, partial curve, poor fit]
CCOc1cc(C(=S)N2CCCC2)ccc1OCc1ccccc1 20 µM [inhibitor, single point]
Clc1ccc(-c2cc3ccccc3nc2N2CCCC2)cc1 28.2 µM [inhibitor, single point]
S=C1SCN(Cc2ccccc2)CN1Cc1ccccc1 10 µM [inhibitor, partial curve, poor fit]
Cc1[nH]c2ccc(C(=O)OC(C)C(=O)N(C)c3ccccc3)cc2c1C (centres undefined) 5.62 µM [inhibitor, partial curve, poor fit]
Fc1ccc(CNc2nc(-c3cccnc3)nc3ccccc23)cc1 28.2 µM [inhibitor, single point]
COc1ccc(CCNC(=O)c2c(O)nc3c(C)cccn3c2=O)cc1 12.6 µM [inhibitor, single point]
COc1ccc(C(=O)N2c3ccccc3C(C)(c3ccc(Cl)cc3)CC2(C)C)cc1 (centres undefined) 12.6 µM [inhibitor, single point]
O=S1(=O)c2ccccc2N(Cc2cccc(C(F)(F)F)c2)c2ccccc21 20 µM [inhibitor, single point]
O=c1c2c3c(sc2n(CCN2CCCCC2)c(=O)n1Cc1ccco1)CCCCC3 12.6 µM [inhibitor, single point]
C[C@H](O)C#Cc1cnc2c(c1)C(=O)N([C@H](C)CO)C[C@@H](C)[C@@H](CN(C)Cc1ccc(-c3ccccc3)cc1)O2 11.2 µM [inhibitor, partial curve, poor fit]
COc1ccc(/C=C/c2cc(-c3ccc(C)cc3)o[n+]2C)cc1 2.24 µM [inhibitor, partial curve, poor fit]
CCCCc1ccc(NC(=O)c2ccc(N(C)S(C)(=O)=O)cc2)cc1 1 µM [inhibitor, full curve, poor fit]
O=C(Nc1cc(S(=O)(=O)N2CCOCC2)ccc1N1CCCCC1)c1ccc(Cl)cc1 28.2 µM [inhibitor, single point]
CC1CCCCN1S(=O)(=O)c1ccc(C(=O)Nc2sc3c(c2C(N)=O)CC(C)(C)NC3(C)C)cc1 (centres undefined) 10 µM [inhibitor, partial curve, poor fit]

Potency, inactive:
Cc1ccc(CN2C(=O)N/C(=C\c3cccn3-c3cccc(C(=O)O)c3)C2=O)cc1
Cc1ccccc1NC(=O)Cn1c(=O)oc2cc(Br)ccc21
Cc1cccc(-c2noc(-c3ccc(Cl)cc3[N+](=O)[O-])n2)c1
COc1ccc(C2=C(C)C(=NCCCN3CCN(c4cc(C)ccc4C)CC3)NS2(=O)=O)cc1
O=C(CSc1nnc(-c2ccc(F)cc2)o1)N1CCCCC1
COc1cccc(Cn2c(CNC(=O)Cc3cccc(C)c3)nc3cccnc32)c1
N#Cc1nc(-c2cccc3ccccc23)oc1NCCN1CCOCC1
Cc1cccc(NC(=O)c2ccc(-n3cccn3)c([N+](=O)[O-])c2)c1
Cc1cccc(NC(=O)Cn2c(=O)n(CCCS(=O)(=O)C3CCCCC3)c(=O)c3ccccc32)c1
O=C(Nc1nn[nH]n1)c1ccc(S(=O)(=O)N2CCCCC2)cc1
Cc1nnc(SCc2ccc3c(c2)OCO3)s1
COc1cccc(-c2cnc3cccnn23)c1
